# From the supplement of paper PMC10126150
# Values marked as one replicate rest on one cluster of the flow cell; about a third of the high ones do not repeat.
# Tested on: ATP
# Assay: switch fluorescence ratio, 500 uM ATP over buffer (Cy3 cluster intensity, sum of 5 cycles each) (fold (ratio)); higher = stronger signal-on switching upon ATP binding; sequences stand for … in TCGTCGGCAGCGTCAGATGTGTATAAGAGACAGTTTTTTTTTTTTTTTTTTTTTTTTT…TC
# Details: aptamer strand: ATP DNA aptamer (quencher-CACCTGGGGGAGTATTGCGGAGGAAGG + anchor), 100 nM annealed; ATP concentration: 500 uM; one replicate
# In short: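 For every switch-domain sequence, the fluorescence ratio is the mean of per-cluster values, each being summed target-cycle Cy3 intensity over summed buffer-cycle Cy3 intensity. Clusters outside 100-1000 RFU were excluded. On a modified Illumina MiSeq flow-cell, the Cy3-labelled switching-strand clusters were annealed to 100 nM quencher-labelled ATP aptamer, imaged in selection buffer and then after 15 min with 500 uM ATP at 22 °C. Five such cycles were run, with NaOH stripping and re-annealing between them.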
# 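Further: ATP exposure 15 min at 22 °C before imaging.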
row,Sequence,switch fluorescence ratio
1,CCAACCTTCT,2.15
2,CTTCGCGATA,1.07
3,CGTGCGACAA,1.46
4,ACGTAAATTA,1.59
5,GCATTGATGC,1.03
6,GTGCAGGTTT,1.02
7,GACTTCATAC,1.78
8,TAGGTCCATC,1.05
9,AAACTACCGA,1.13
10,CAGGAGTG,0.963
11,CCCGAGCTGG,0.968
12,AGGCATTCAG,0.987
13,GATACGGAG,1.01
14,CCCGAGCGTG,1.04
15,AGAATTGCCA,1.03
16,CCGCGATGGT,2.27
17,AATCGAACAT,1.03
18,TGGCAGCTGA,0.981
19,CAAATCTGAG,1.03
20,ACATCTCATC,1
21,AGCTCCCGGC,0.984
22,GAGAACGTTG,0.976
23,AGTAATTCGA,1.06
24,GGTGTATGGA,0.997
25,TAGAGGTGTA,1

row,Sequence,switch fluorescence ratio
1,TTCTTATCTA,0.97
2,TATGGGAA,1.03
3,GTGTTCGTGG,1.03
4,AAACCGTCTT,1.05
5,TATTGGATAC,1.17
6,GAAGTTCCAG,0.99
7,ATTATCCGGC,0.999
8,AATAGGTGAT,1.03
9,GAGCACGGAG,0.961
10,TTAAATTTAT,0.954
11,CTGTCTGGT,0.961
12,ACGAAATTGT,1.07
13,GTGGCCGGCC,0.968
14,AAATCTAAG,0.989
15,TTGTGGTGGC,0.952
16,AAGGGGCTG,1.01
17,ACCTACCC,1.44
18,TAAGAAAACC,1.61
19,CCCAAAAGCT,1.05
20,AAGATTTGGT,1.01
21,AGGCAAAGAT,1.01
22,GCGCAAAAGC,0.992
23,CGCCTAGTCA,1.01
24,ACAACGCCTG,0.971
25,GATTTTTACA,0.982

row,Sequence,switch fluorescence ratio
1,GTCTTGGGG,0.99
2,GAGTAAGAAC,0.972
3,AATGTATGAA,0.975
4,TTCTTAATTC,1.15
5,CATCCAGAAA,1.2
6,TATCTATTTC,1.05
7,ATTTCAACCA,0.961
8,GAAACACTGT,0.982
9,TAGAATCCGA,1.02
10,AGTATAGAGG,1.02
11,TCCAGAGCTG,0.952
12,GAGCCTGGAT,1.01
13,GCACATGTGG,0.965
14,GTTGTAGGAC,1.02
15,GGCTCCGATT,1.77
16,TCGATTTAGG,0.984
17,GGTTATTACT,1.02
18,GACTATGGGT,0.95
19,CGAATACAG,0.978
20,GGTTACCCGG,1
21,TGCATGAGGG,1.08
22,TTACCCTCTG,1.09
23,CGCGTTAAGC,0.959
24,TGCGGAGGGG,0.971
25,GTGAACGCCT,1.01

row,Sequence,switch fluorescence ratio
1,TATGTGATCG,0.998
2,ATGAGTATGG,0.982
3,AATAAAATGT,0.968
4,TGCCATTAAT,1.03
5,CTGCATGTGG,1.05
6,TACATTGTG,0.967
7,AGAGCCTATA,0.967
8,CGCCCGAGCT,1.22
9,GCAGCTCCGC,1.19
10,GTCATCTCGC,1.06
11,GTTCTTAGAC,0.954
12,CATCTAAAAG,1.02
13,TGTGCACGGA,1.01
14,GAGTAAGTTC,1.01
15,GTCGGATTGG,1.02
16,GATTATCCC,1.06
17,GATGAAAGCA,1.04
18,CCATTCAGCG,1.06
19,TCAAAGTTCA,0.993
20,ATGATTGATC,1.03
21,AGAGGCTCTT,1.04
22,GCTTGTTTTC,1.01
23,AAGGCAAAGT,1
24,CCTTGGCAAA,3.64
25,TGCAAGTGCC,1.05
